The full ranking holds about 33,000 sequences; the median of “E-score (-0.5 to 0.5)” is about -0.021, and the highest 2% start at about 0.32. This is one part of the list.
Molecular target: T1, Zap1 (UniProt P47043)
T1 sequence: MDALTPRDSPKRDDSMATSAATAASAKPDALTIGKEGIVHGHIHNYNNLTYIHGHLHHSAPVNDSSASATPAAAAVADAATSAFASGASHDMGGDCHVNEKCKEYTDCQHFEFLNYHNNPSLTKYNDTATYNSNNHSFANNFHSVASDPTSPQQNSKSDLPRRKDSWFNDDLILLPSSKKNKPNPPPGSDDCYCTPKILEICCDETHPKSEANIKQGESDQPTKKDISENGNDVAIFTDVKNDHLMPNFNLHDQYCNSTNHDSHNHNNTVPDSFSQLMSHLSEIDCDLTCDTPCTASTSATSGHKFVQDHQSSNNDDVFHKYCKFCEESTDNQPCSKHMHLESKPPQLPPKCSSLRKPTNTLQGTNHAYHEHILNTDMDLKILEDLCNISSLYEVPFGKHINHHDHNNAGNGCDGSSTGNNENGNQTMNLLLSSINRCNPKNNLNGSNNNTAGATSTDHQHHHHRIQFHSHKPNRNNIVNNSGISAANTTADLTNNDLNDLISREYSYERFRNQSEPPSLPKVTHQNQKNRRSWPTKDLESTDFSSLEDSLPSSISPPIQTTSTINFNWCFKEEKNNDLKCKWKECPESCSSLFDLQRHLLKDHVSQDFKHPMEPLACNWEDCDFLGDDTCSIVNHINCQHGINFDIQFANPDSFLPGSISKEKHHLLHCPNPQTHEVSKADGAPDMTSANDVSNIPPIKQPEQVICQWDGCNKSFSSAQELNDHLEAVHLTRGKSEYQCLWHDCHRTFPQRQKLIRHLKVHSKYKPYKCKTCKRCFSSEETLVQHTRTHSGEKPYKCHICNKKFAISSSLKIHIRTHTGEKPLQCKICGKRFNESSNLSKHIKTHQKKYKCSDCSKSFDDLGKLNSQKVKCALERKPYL
Test: PBM E-score (8-mer binding enrichment) (E-score (-0.5 to 0.5)); higher = stronger / more preferred TF binding; most listed sequences are background and not binding sites
Settings: protein concentration: 200 nM; construct: GST-full length
Method in brief: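 GST-tagged yeast TFs (full-length or DNA-binding domain) were made by PURExpress in vitro transcription/translation and applied at about 100-200 nM to universal all-10-mer Agilent arrays. The arrays were made double-stranded by primer extension, on fresh or once-stripped slides. Bound protein was detected with fluorescent anti-GST, and scans were normalised with masliner. Each ungapped eight-base word, pooled with its reverse complement, received an E-score (modified Wilcoxon-Mann-Whitney statistic) from the Universal PBM Analysis Suite.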

Row | Sequence | PBM E-score
1 | AGAGCTTG | -0.11
2 | GTACGATA | -0.0268
3 | AACGTTTA | 0.114
4 | GCCACTCC | -0.0945
5 | ACGGAATA | 0.142
6 | ACGCCGGA | -0.282
7 | CCCGTCGC | -0.0742
8 | AAACACCC | 0.226
9 | AGACTTTG | -0.141
10 | AGGGGGGG | -0.39
11 | ACTGCTAG | -0.269
12 | CCAAGGAA | -0.116
13 | GATCAGTA | 0.055
14 | AATTTTGA | 0.279
15 | GATAAAAA | 0.163
16 | CCCGTCGA | -0.0433
17 | ACTATGGA | -0.0878
18 | AAAGTGTC | -0.114
19 | AGGCAAGC | -0.266
20 | ATATACTG | 0.119
21 | ATTTTTTC | 0.0779
22 | CCTGGTCG | -0.0551
23 | CCAAGTAG | -0.115
24 | CGAGATTC | -0.0831
25 | CATGATAC | 0.124

Row | Sequence | PBM E-score
26 | CTGGCTGC | -0.259
27 | CGTCCCTA | -0.143
28 | CGAATGAA | -0.00672
29 | GGACAGCA | -0.052
30 | GAGACCCC | 0.105
31 | ATTTCCTG | 0.0973
32 | CTTTTGCC | 0.0146
33 | AGATCGCG | -0.0418
34 | GCAGAAAC | 0.0633
35 | AAGTTACG | 0.17
36 | GACACGCA | -0.00968
37 | ACTAAAAG | 0.191
38 | GCTAGATA | 0.0407
39 | AAGCTGAG | -0.145
40 | TATAGTCA | 0.13
41 | GTATGGTA | 0.171
42 | CCAGACTC | -0.217
43 | CTAAGAGA | -0.206
44 | CCCCTAGG | 0.16
45 | CGAGAACC | 0.239
46 | GACAGTAC | 0.087
47 | GAGAGCAC | -0.00012
48 | GAATCTAC | 0.00625
49 | ACCGTTCT | 0.0384
50 | CTTAGTTC | 0.00938

Row | Sequence | PBM E-score
51 | AAGACGGC | -0.276
52 | GAGTGCAA | 0.0286
53 | TCAAAGGA | 0.0309
54 | CGCAATGC | -0.0628
55 | ACCACAGT | 0.227
56 | ATGTTATG | 0.158
57 | GTAGATAC | 0.0139
58 | CACCACTA | 0.22
59 | CGCAGTGA | -0.122
60 | CAGGACCC | 0.24
61 | ATTGTAAC | 0.225
62 | GCAGGTCC | -0.0874
63 | CCAGGACG | 0.0331
64 | ACATGACG | -0.07
65 | CCACGAAC | 0.105
66 | CCGGGCCG | 0.0436
67 | TATCCAGA | 0.0532
68 | AACAGAAC | 0.092
69 | AGGCTCTG | -0.166
70 | TAGAAGGA | -0.224
71 | CACCTTAC | 0.148
72 | ATTGATTC | 0.126
73 | ATAGCGTG | -0.165
74 | ACACATGA | 0.0369
75 | ACCGTCTG | -0.0499

Row | Sequence | PBM E-score
76 | AAATGGTG | 0.195
77 | TCAACTGA | -0.101
78 | AGGATAGC | -0.137
79 | AGGCATAG | -0.181
80 | CATTACAG | 0.149
81 | CCCCGGCA | -0.216
82 | ATAGGTGC | -0.149
83 | TCGTAGAA | 0.0356
84 | CGAGATAA | 0.142
85 | GGGGTGTA | -0.0539
86 | CGCCATCA | -0.153
87 | CGGGTTAA | 0.356
88 | CATGACGG | 0.174
89 | AGCACCTA | -0.216
90 | AACGCACC | 0.0303
91 | ACTGTATC | -0.0885
92 | ATCTTCGC | 0.0308
93 | AAAAGGGG | 0.00676
94 | GGAAATAA | 0.182
95 | ATACAGTC | -0.148
96 | ATGGAATG | -0.123
97 | ACGGCAAC | -0.117
98 | GATTATGC | 0.0154
99 | GATATAAA | 0.139
100 | CCCGAGCG | 0.0625

Row | Sequence | PBM E-score
101 | AAGAACCT | 0.262
102 | ACAACTTG | -0.0423
103 | AGGCTTTC | -0.0789
104 | CGTTGAGA | -0.13
105 | ACTATTGG | 0.0433
106 | CTATGTCA | -0.0447
107 | CCTAATGA | 0.00936
108 | ACACCACA | 0.0847
109 | ACCCTTGC | 0.381
110 | GGTATCTA | 0.248
111 | CTAACGTA | 0.0705
112 | GTAATTAA | 0.174
113 | AGAGTGAC | -0.124
114 | ACGCTCTC | -0.218
115 | TCATATGA | 0.173
116 | AAGCAGCC | -0.11
117 | GGAAACGA | -0.0251
118 | AATGCCAT | -0.133
119 | AACCGGTT | 0.348
120 | TCCGCCGA | -0.0045
121 | AGAATTAA | -0.0676
122 | CAGGTCAG | 0.0791
123 | GCAGGTCA | 0.194
124 | AACCGGGT | 0.319
125 | ACACAGAA | 0.0785

Row | Sequence | PBM E-score
126 | AGAGGGAA | -0.164
127 | CCGCAACC | 0.34
128 | AATCGTTG | -0.0687
129 | CGGCAGAG | -0.142
130 | AAGTCATG | -0.00269
131 | AAATGAGA | 0.0578
132 | CACTGAGA | -0.287
133 | ACACATTC | -0.0566
134 | AAATAGGT | 0.278
135 | AGCGCGTA | -0.172
136 | ACCTGAAG | 0.184
137 | GCGGACGA | 0.00898
138 | AGTAAACT | 0.0142
139 | TAAATTGA | 0.227
140 | ATCCCGAA | 0.079
141 | AATGTTCT | -0.0884
142 | AGAGCATG | -0.193
143 | TGCATACA | -0.0614
144 | CGGTACTA | 0.0114
145 | GTAGTCTA | 0.027
146 | CTACTAAG | 0.014
147 | CGAAAACA | 0.17
148 | CAGGCTAA | -0.222
149 | GTTACCTA | 0.294
150 | CGAGAGCA | 0.00534

Row | Sequence | PBM E-score
151 | ATTTCCGC | 0.146
152 | AGATCCGA | -0.0672
153 | ATCCCCTA | 0.0194
154 | AGACCGGA | -0.0857
155 | AATTTCCC | -0.134
156 | CTTGAAAA | 0.189
157 | AACCGGTC | 0.14
158 | CGCGCCCG | -0.27
159 | ACGCTCAA | 0.0984
160 | AGCACAAG | -0.161
161 | CGCAAATC | -0.103
162 | CGACTGTC | -0.208
163 | CGCCGCAC | -0.136
164 | AAGCCTGT | -0.128
165 | CTGCCACA | -0.127
166 | CTCTAAAC | 0.0266
167 | GCGAGCAA | -0.169
168 | GGATGATA | 0.0603
169 | AACTCTAA | 0.0617
170 | CTGGCCAG | -0.202
171 | CGTTGAAA | 0.0873
172 | ATGCGATG | -0.221

Reference: the supplement of paper PMC3334620
